PMC4924701
Numbering of substitutions follows the chain as printed. These are yes or no findings as the source states them, for the method shown. Binding seen in cells or lysates may run through a third protein. Some binding calls cover weakened binding; strength is not graded here. For some of these results: Sequences can lack the tags named with a protein.

By UniProt entry, the sequences of proteins in these tests, tags left out. Where a name states a change or a piece, a line headed by the entry shows the natural chain unless it says otherwise. Chains listed by the source or under a name are the forms on record and can include a tag or linker. Residues count along the entry.
wild-type FLT3 stably expressed in Ba/F3 cells (P36888, residues 27-993): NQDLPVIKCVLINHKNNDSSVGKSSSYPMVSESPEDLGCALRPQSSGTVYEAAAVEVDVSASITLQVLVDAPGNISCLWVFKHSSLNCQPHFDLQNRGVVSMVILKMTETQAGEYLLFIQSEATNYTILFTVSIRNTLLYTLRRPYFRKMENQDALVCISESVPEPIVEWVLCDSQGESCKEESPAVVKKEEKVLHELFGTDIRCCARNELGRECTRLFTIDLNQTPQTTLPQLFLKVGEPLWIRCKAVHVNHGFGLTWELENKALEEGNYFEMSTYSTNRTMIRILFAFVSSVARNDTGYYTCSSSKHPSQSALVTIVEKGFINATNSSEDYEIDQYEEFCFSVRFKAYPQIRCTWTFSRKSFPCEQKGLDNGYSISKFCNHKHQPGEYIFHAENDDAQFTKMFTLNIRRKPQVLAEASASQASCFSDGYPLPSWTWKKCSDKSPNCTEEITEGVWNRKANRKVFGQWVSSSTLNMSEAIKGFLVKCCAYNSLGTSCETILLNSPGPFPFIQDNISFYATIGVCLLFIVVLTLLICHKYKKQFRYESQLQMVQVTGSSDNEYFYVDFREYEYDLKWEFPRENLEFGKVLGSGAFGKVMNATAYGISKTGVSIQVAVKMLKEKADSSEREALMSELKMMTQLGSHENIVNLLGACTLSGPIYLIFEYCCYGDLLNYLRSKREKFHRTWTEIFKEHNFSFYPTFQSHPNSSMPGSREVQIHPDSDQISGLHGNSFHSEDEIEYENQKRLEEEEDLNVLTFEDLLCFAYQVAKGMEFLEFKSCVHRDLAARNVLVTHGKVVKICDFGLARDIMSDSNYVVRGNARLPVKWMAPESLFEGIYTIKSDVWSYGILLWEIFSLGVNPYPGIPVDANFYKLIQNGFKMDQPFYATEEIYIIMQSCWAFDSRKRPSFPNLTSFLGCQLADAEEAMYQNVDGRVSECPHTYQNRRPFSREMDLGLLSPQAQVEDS
FLT3-K644A (kinase-dead mutant of FLT3) (P36888, form named): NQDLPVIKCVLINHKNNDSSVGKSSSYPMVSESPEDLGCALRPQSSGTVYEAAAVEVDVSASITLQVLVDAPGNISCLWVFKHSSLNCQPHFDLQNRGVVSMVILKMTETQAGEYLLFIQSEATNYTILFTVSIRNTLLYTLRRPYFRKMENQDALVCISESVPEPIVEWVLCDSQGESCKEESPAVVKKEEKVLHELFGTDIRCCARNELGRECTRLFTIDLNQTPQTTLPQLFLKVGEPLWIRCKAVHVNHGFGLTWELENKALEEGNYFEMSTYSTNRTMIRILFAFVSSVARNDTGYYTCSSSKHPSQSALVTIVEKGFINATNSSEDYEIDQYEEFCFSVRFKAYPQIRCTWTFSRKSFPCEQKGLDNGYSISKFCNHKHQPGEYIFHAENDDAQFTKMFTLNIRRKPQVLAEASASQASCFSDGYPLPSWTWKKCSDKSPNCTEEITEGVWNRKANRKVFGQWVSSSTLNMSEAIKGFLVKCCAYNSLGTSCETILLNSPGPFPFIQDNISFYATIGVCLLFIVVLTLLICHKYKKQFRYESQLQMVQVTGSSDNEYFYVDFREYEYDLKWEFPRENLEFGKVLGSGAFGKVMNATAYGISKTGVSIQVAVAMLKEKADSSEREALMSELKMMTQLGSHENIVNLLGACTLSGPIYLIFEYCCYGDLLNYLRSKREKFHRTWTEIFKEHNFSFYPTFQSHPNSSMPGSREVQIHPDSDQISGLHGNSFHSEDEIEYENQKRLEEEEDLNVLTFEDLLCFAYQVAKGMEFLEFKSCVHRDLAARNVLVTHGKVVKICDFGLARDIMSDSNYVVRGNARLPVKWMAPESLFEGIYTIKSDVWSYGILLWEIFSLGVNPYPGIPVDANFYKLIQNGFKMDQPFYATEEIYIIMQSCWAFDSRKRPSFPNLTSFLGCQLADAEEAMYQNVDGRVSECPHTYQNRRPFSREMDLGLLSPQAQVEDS
FLT3-Y955F-Y969F (P36888, form named): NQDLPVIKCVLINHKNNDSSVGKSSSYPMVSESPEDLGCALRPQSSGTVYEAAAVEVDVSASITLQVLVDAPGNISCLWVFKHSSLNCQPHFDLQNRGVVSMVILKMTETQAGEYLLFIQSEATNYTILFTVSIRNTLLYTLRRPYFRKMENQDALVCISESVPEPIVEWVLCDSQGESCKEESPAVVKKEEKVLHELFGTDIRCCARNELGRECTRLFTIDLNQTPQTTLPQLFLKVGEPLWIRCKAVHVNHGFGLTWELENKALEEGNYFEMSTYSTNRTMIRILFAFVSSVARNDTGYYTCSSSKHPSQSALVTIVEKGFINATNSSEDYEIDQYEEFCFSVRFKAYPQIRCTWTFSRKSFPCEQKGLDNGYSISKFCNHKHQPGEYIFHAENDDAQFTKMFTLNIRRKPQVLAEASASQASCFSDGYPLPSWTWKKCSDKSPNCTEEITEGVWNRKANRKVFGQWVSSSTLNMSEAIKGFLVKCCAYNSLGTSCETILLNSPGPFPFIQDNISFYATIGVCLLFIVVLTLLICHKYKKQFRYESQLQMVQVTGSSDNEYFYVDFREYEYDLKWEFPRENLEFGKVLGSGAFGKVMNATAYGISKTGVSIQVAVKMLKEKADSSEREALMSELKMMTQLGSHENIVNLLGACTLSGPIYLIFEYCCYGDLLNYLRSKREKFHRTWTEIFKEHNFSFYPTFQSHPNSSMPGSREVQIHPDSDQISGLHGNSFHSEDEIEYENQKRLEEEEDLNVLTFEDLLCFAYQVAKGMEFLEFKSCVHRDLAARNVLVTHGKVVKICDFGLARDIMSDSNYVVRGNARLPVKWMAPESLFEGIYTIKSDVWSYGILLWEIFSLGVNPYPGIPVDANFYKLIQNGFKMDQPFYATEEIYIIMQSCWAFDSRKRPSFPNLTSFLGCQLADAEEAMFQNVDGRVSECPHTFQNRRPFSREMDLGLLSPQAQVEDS
FLT3-Y969F (P36888, form named): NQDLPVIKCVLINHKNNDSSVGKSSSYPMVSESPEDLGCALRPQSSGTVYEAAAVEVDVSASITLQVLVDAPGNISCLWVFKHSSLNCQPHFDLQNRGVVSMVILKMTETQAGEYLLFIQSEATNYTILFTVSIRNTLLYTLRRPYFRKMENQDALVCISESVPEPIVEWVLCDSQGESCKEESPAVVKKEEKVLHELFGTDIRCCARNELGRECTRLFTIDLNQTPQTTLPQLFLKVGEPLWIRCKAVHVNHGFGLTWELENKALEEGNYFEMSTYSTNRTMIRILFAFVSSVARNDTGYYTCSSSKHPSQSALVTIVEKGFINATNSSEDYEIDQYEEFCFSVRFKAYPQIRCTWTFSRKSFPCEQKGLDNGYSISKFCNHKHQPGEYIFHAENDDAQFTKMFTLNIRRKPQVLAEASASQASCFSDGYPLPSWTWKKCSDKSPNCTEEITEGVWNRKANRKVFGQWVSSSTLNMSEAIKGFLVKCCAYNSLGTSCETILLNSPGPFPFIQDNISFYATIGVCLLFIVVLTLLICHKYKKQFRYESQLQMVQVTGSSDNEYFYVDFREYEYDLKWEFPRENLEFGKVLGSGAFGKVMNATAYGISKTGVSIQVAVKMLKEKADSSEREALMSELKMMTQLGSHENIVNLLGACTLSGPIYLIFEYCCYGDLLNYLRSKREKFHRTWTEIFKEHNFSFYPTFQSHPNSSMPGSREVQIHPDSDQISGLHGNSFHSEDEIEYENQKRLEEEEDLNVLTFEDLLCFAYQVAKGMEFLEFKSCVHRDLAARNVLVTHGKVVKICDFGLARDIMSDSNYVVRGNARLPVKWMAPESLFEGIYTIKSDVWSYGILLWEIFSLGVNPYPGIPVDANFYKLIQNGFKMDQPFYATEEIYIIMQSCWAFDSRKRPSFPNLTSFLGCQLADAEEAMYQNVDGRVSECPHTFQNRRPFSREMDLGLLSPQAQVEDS

Tests used:
[1] = target: T1, FLAG-tagged GADS (GRB2-related adaptor protein 2, GRAP2) (human) (UniProt O75791); assay: co-IP; COS-1 cells co-transfected with FLAG-GADS and FLT3 plasmids, stimulated or not with 100 ng/ml FL for five minutes before lysis; anti-FLAG immunoprecipitation, Western blotting
T1 sequence: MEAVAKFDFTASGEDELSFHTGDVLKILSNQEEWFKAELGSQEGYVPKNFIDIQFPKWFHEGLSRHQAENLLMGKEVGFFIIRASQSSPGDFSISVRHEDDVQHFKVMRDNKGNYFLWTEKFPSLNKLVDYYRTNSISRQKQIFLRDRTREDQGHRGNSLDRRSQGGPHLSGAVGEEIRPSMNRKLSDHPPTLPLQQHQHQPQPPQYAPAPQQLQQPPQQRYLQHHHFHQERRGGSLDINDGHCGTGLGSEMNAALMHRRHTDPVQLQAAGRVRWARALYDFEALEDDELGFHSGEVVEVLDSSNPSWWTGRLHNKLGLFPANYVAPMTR

[2] = target: T1, FLAG-tagged GADS (GRB2-related adaptor protein 2, GRAP2) (human); assay: co-IP; COS-1 cells co-transfected with FLAG-GADS and FLT3-WT, not stimulated with FL; anti-FLAG immunoprecipitation, Western blotting
[3] = target: T2, FLAG-tagged GADS-R83E (human) (UniProt O75791); assay: co-IP; COS-1 cells co-transfected with FLAG-GADS and FLT3 plasmids, stimulated or not with 100 ng/ml FL for five minutes before lysis; anti-FLAG immunoprecipitation, Western blotting
T2 sequence: T1 sequence with R83E

[4] = target: T3, GADS stably expressed in Ba/F3-FLT3-WT cells (human) (UniProt O75791); assay: co-IP; Ba/F3 cells expressing FLT3-WT and GADS, stimulated with FL for 5 minutes; lysed in 1% Triton X100 buffer; immunoprecipitation with an anti-GADS antibody
T3 sequence: T1 sequence

“FLT3-K644A (kinase-dead mutant of FLT3) (from UniProt P36888 27-993) (receptor)” was tested, and the binding [1] was “no binding”.
“FLT3-Y955F-Y969F (from UniProt P36888 27-993) (receptor)” was tested, and the binding [1] was “no binding”.
For “FLT3-Y969F (from UniProt P36888 27-993) (receptor)”, the binding [1] was “binds”.
“wild-type FLT3 (from UniProt P36888 27-993) (receptor)” was tested, and the binding [2] was “no binding (condition: cells not stimulated with FL)”, the binding [1] was “binds” and the binding [3] was “no binding”.
For “wild-type FLT3 stably expressed in Ba/F3 cells (from UniProt P36888 27-993) (receptor)”, the binding [4] was “binds”.
